Data published in the RNAGym collection of RNA variant scans (doi:10.1073/pnas.2313332121).
This sample is rich in variants without activity.

B1: TPR 5TU (parent)
chain: GGAUCUUCUCGAUCUAACAAAAAAGACAAAUCUGCCACAAAGCUUGAGAGCAUCUUCGGAUGCAGAGGCGGCAGCCUUCGGUGGCGCGAUAGCGCCAACGUUCUCAACUAUGACACGCAAAACGCGUGCUCCGUUGAAUGGAGUUUAUCAUG

Variants of: B1
Assay: polymerase ribozyme fitness, log enrichment relative to wild type (log ratio); higher = more active; in vitro selection for triplet polymerase activity
How it was run: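 Mutant libraries of each subunit of a heterodimeric triplet polymerase ribozyme were built by PCR and transcribed. Each library went through one round of in vitro selection in triplicate: annealing with biotinylated primer, partner subunit and triplets, frozen incubation at −7 °C, gel excision of extended constructs, streptavidin-bead capture and RT-PCR. Input and output libraries were Illumina-sequenced; only genotypes with ≥10 input reads and ≥1 read per output were kept. Fitness is log2(genotype enrichment/wild-type enrichment), using inverse-variance-weighted replicate averages.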

GGAUCUUCUCGAUCUAACAAAAAAGACAAAUCUGCCACAAAGGUUGAGAGCAUCUUCGGAUGCAGAGGCGGCAGCCUUCGGUGGCGCGUUAGAGCCAACGUUCUCAACUAUGACACGCAAAACGCGUGCUCCGUUGAAUGGAGUUUAUCAUG and GGAUCUUCUCGAUCUAACAAAAAAGACAAAUCUGCCACAAAGGUUGAGCGCAUCUUCGGAUGCAGAGCCGGUAGCCUUCGGUGGCGCGAUAGCGCCUACGUUCUCAACUAUGACACGCAAAACGCGUGCUCCGUUGAAUGGAGUUUAUCAUG cannot be ordered by “polymerase ribozyme fitness (log ratio)” value: ≤ -4.2 for the first, ≤ -4.2 for the second.

GGAUCUUCUCGAUCUAACAAAAAAGACAAAUCUGCCACAAAGGUUGAGAGCUUCUUCGGAUGCAGAGGCGGCAGGCUUCGAUGGCGGGAUAGCGCCAACGUUCUCAACUAUGACACGCAAAACGCGUGCUCCGUUGAAUGGAGUUUAUCAUG and GGAUCUUCUCGAUCUAACAAAAAAGACAAAUCUGCCACAAAGGUUGAGCGCAUCUUCGGACGCACAGGCGGCAGCAUUCGGUGGCGCGAUAGCGCCAACGUUGUCCACUAUGACACGCAAAACGCGUGCUCCGUUGAAUGGAGUUUAUCAUG cannot be ordered by “polymerase ribozyme fitness (log ratio)” value: ≤ -4.2 for the first, ≤ -4.2 for the second.

GGAUCUUCUCGAUCUAACAAAAAAGACAAAUCUGCCACAAAGGUUGAGAGCUUCUUCGGAUGCAGAGGCGGCAGCCUUCGGUGGCGCGAUAGCGCCAACGUUCUCAACUAUGACACGCAAAACGCGUGCUCCGUUGAAUGGAGUUUAUCAUG and GGAUCUUCUCGAUCUAACAAAAAAGACAAAUCUGCCACAAAGGUUGAGAGCAUUUUCGGAUCCAGAGGCGGCAGCCUUCGGUGACGCGAUAGCGCCGACGUUCUCAACUAUGACACGCAAAACGCGUGCUCCGUUGAAUGGAGUUUAUCAUG cannot be ordered by “polymerase ribozyme fitness (log ratio)” value: ≤ -4.2 for the first, ≤ -4.2 for the second.

GGAUCUUCUCGAUCUAACAAAAAAGACAAAUCUGCCACAAAGGUUGAGAGCAUCUUUGGAUGCAGAGGCGACAGCCUUCGGGGGCGCGAUAGGGUCAACGUUCUCAACUAUGACACGCAAAACGCGUGCUCCGUUGAAUGGAGUUUAUCAUG and GGAUCUUCUCGAUCUAACAAAAAAGACAAAUCUGCCACAAAGGUUGAGAGCAUCUUCGGAUGCAGAGGCGGCAGCCUUCGGUGGCGCGAUGGCGCCAACGUUCUCAACUAUGACACGCAAAACACGUGCUCCGUUGAAUGGAGUUUAUCAUG cannot be ordered by “polymerase ribozyme fitness (log ratio)” value: ≤ -4.2 for the first, ≤ -4.2 for the second.

GGAUCUUCUCGAUCUAACAAAAAAGACAAAUCUGCCACAAAGGUUGAGAGCAUCUUCGGAUGCAGAGGCGGCAGCCUUCGGUGGUGCGAUAGCGGAAACAUUCUCAACUAUGACACGCAAAACGCGUGCUCCGUUGAAUGGAGUUUAUCAUG and GGAUCUUCUCGAUCUAACAAAAAAGACAAAUCUGCCACAAAGGUUGAGAGCAUGUUCGGAUGCAGAGGCGGCAGCCUUCGGUGGCGCGAUCGCGCCAACGUUCUCAACUAUGACACGCAAAACGCGUGCUCCCUUGAAGGGAGUUUAUCAUG cannot be ordered by “polymerase ribozyme fitness (log ratio)” value: ≤ -4.2 for the first, ≤ -4.2 for the second.

GGAUCUUCUCGAUCUAACAAAAAAGACAAAUCUGCCACAAAGGUUGAGAGCAUUUUCGGAUGCAGAGGCGGCAGCCUUCGGUGACGCGAUAGCGCCAACGUUCUCAAUUAUCACACGCAAAACGCGUGCUCCGUUGAAUGGAGUUUAUCAUG and GGAUCUUCUCGAUCUAACAAAAAAGACAAAUCUGCCACAAAGGUUGAGAGCAUCUUCGGAUGCAGAGGCGGCAGCCUUCGGUGGCGCGAUAGCGAAAACGUUCUCAACUAUGACACGCAAGACGCGUGCUCCGUUGAAUGGGGUUUAUCAUU cannot be ordered by “polymerase ribozyme fitness (log ratio)” value: ≤ -4.2 for the first, ≤ -4.2 for the second.

Going from GGAUCUUCUCGAUCUAACAAAAAAGACAAAUCUGCCACAAAGGUUGUGAGCAUCUUCGGAUGCAGAGGCGGCAACCUUCGGUGGCGCGAUAGAGCCAACGUUCUCAACUAUGACACGCAAAACGCGUGCUCCGUUGAAUGGAGUUUAUCAUG to GGAUCUUCUCGAUCUAACAAAAAAGACAAAUCUGCCACAAAGGUUGAGAGCAUCUUCGGAUGCAGAGGCGGCAGCCUUCGGUGGCGCGAUAGCGUAAACGUUCUCAACUAUGACACGCAAAACGCGUGCUCCGUUGAAUGGAGUUUAUCAUG, the “polymerase ribozyme fitness (log ratio)” value rises from ≤ -4.2 to -4.15.

GGAUCUUCUCGAUCUAACAAAAAAGACAAAUCUGCCACAAAGGUUGAGAGCAUCUUCGGAUGCAGAGGCGGCAGACUUCGGUGACGCGAUAGCUCCAACGUUCUCAACUAUGACACGCAAAACGCGUGCUCCGUUAAAUGGAGUUUAUCAUG and GGAUCUUCUCGAUCUAACAAAAAAGACAAAUCUGCCACAAAGGUUGAGAGCAUCUUCGGAUGCAGAGGCGGCAGCCUUCGGUGGCGCGAUAGCGCUAACGUUCUCAACUAUGACAGGCAAAACGCGUGCUCCGUUGAAUGGCGUUUAUCAUG cannot be ordered by “polymerase ribozyme fitness (log ratio)” value: ≤ -4.2 for the first, ≤ -4.2 for the second.

First: GGAUCUUCUCGAUCUAACAAAAAAGACAAAUCUGCCACAAAGGUUGAGCGUAUCUUCGGAUACAGAGGCGGCAGCCUUCGGUGGCGCAAUGGCGCCAACGUUCUCAACUAUGACACGCAAAACGUGUGCUCCGUUGGAUGGAGUUUAUCAUG
Second: GGAUCUUCUCGAUCUAACAAAAAAGACAAAUCUGCCACAAAGGUUGAGAGCAUCUUAGGUUGCAGAGGCGGCAGCCUUCGGUGGCGCGAUAGCGCCAACGUUCUCAACUAUGACACGCAAAACGCGUGCUCCGUUGAAUGCAGUUUAUCAUG
The “polymerase ribozyme fitness (log ratio)” value of the first is lower: ≤ -4.2 for the first, -4.18 for the second.

In the case of GGAUCUUCUCGAUCUAACAAAAAAGACAAAUCUGCCACAAAGGUUGAGAGCAUCUUCGGAUGCAGAGGCGGCAGUCUUCGGUUGCGCGAUAGCGCCAACGUGCUCAACUAUGACACGCAAAACGCGUGCUCCGUUGAAUGGAGUUUAUCAUG, the “polymerase ribozyme fitness (log ratio)” value is reported as ≤ -4.2.
